The assay addresses T1, BSA (UniProt P02769).
T1 construct: Control coating of the wells
The experiment in a line: solid phase adhesion assay, ELISA read-out (A450 nm-A900 nm). How it is done:
Recombinant human integrin α4β7 (R&D Systems) was diluted to the indicated concentration in buffer (150 mM NaCl, 20 mM HEPES); 100 microliters per well was added to Costar half-well ELISA plates (Corning Inc.) and incubated overnight at 4° C. The following day, wells were washed and blocked with 5% BSA in buffer (150 mM NaCl, 20 mM HEPES) overnight at 4° C. The following day, the wells were washed, and IgG1× or CDH26-hIgG1-Fc diluted in assay buffer (150 mM NaCl, 20 mM HEPES, 1 mM CaCl₂, 1 mM MgCl₂, 1 mM MnCl₂) containing 5% BSA was added to wells for 60 min at 37° C. Wells were washed 3×, and detection antibody (biotinylated anti-human IgG1 (Vector Laboratories, Inc.); 0.5 micrograms per milliliter in assay buffer with 5% BSA) was added for 2 h at room temperature. Wells were washed 3× with assay buffer with 5% BSA and streptavidin-HRP was added (1:200 in assay buffer with 5% BSA; R & D Systems). Wells were washed 3× with assay buffer with 5% BSA, and a 1:1 dilution of TMB substrate (BD Biosciences) was added. The reaction was stopped by the addition of 2N H2SO4. Absorbance at 450 nm and 900 nm was measured using a plate reader (BioTek).

T1 sequence (P02769 25-607 limits assumed): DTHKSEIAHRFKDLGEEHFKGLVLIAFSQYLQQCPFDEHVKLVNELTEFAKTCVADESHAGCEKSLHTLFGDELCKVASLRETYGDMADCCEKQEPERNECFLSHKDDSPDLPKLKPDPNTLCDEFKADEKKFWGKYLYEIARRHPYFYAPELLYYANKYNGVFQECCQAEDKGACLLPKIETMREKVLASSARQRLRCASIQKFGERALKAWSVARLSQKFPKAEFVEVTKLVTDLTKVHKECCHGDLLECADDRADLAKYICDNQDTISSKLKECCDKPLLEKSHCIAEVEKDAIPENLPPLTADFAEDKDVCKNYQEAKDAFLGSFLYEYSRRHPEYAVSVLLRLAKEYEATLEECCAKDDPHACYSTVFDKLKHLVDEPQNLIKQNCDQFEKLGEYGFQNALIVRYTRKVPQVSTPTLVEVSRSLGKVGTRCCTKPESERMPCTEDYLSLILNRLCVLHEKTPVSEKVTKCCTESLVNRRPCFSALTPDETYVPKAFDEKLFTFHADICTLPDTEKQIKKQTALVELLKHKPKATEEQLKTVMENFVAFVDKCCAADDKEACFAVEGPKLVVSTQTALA

B1: CDH26-hIgG1-Fc fusion protein (Fc fusion)
chain: DSVQQETDDLTKQTKEKIYQPLRRSKRRWVITTLELEEEDPGPFPKLIGELFNNMSYNMSLMYLISGPGVDEYPEIGLFSLEDHENGRIYVHRPVDREMTPSFTVYFDVVERSTGKIVDTSLIFNIRISDVNDHAPQFPEKEFNITVQENQSAGQPIFQMLAVDLDEENTPNSQVLYFLISQTPLLKESGFRVDRLSGEIRLSGCLDYETAPQFTLLIRARDCGEPSLSSTTTVHVDVQEGNNHRPAFTQENYKVQIPEGRASQGVLRLLVQDRDSPFTSAWRAKFNILHGNEEGHFDISTDPETNEGILNVIKPLDYETRPAQSLIIVVENEERLVFCERGKLQPPRKAAASATVSVQVTDANDPPAFHPQSFIVNKEEGARPGTLLGTFNAMDPDSQIRYELVHDPANWVSVDKNSGVVITVEPIDRESPHVNNSFYVIIIHAVDDGFPPQTATGTLMLFLSDINDNVPTLRPRSRYMEVCESAVHEPLHIEAEDPDLEPFSDPFTFELDNTWGNAEDTWKLGRNWGQSVELLTLRSLPRGNYLVPLFIGDKQGLSQKQTVHVRICPCASGLTCVELAD[omitted - human IgG1 Fc]
notes: No propeptide cleavage is stated; also called CDH26-Fc; recombinant CDH26-hIgG1-Fc
On to B1, for which the binding result was “no binding”.

(Values after patent publication US20180148492A1 (CHILDREN S HOSPITAL MEDICAL CENTER, published 2018).)
